# According to publication PMC6919601, “Identification of Plasmodium dipeptidyl aminopeptidase allosteric inhibitors by high throughput screening” (PLoS ONE, 2019):
# In all, about 110,000 compounds went through this assay and about 230 (0.21%) showed an effect of 50% or more. This is one part of the list.
# Target: DPAP1 (Plasmodium falciparum, UniProt Q8IIJ9)
# Assay: primary screen, percent inhibition; read by cleavage of a fluorogenic dipeptide substrate; higher = more effect of the substance
# Design: species or system P. falciparum D10 trophozoite lysates; single well
# 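Further: 30 min substrate incubation versus DMSO and 10 µM JCP410 controls.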
# Chain of DPAP1 (Q8IIJ9 whole entry, looked up): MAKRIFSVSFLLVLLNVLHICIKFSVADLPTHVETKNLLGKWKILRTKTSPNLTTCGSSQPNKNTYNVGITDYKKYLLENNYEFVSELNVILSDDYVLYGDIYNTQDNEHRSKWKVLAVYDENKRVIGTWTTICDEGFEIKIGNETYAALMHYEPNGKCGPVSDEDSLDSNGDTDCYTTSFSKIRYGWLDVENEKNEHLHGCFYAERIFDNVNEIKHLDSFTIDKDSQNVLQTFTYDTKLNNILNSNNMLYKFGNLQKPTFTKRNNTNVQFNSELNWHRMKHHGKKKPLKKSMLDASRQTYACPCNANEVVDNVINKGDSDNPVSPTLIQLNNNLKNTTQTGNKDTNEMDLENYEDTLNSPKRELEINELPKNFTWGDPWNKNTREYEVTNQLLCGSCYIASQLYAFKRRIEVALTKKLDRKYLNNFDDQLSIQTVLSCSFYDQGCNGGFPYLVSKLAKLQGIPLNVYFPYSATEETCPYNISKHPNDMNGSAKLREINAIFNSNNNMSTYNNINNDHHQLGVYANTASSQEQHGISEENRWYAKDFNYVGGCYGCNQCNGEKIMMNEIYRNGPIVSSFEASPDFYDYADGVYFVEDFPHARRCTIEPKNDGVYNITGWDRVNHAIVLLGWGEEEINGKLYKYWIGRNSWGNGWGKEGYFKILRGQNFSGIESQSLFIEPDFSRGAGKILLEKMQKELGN
row,SMILES,% Inhibition @ 10 uM
1,CN1CCC(N(C)C/C(Br)=C/c2ccccc2)CC1,-5.26%
2,O=c1c(S(=O)(=O)c2ccc(Cl)cc2)c(O)cc(-c2ccccc2)n1-c1ccccc1,-6.58%
3,Cn1c(=O)c2c(nc(CN3CCN(C(=O)c4ccco4)CC3)n2Cc2ccccc2Cl)n(C)c1=O,-0.499%
4,CCOc1c(Br)cc(CNCCCSc2nnnn2C)cc1OC,-2.88%
5,CCOC(=O)N1CCC2(CC1)OC(=O)C(C)=C2C(=O)NCCCN1CCCCC1C (stereo not shown),-3.56%
6,O=C(Nc1ccc(CN2CCOCC2)cc1)c1sc2ccccc2c1Cl,-8.15%
7,Cc1n[nH]c(C)c1CCCOc1ccc(Br)cc1,-3%
8,Cc1cc(OC(C)C(=O)N(Cc2cccc(F)c2)C2CCS(=O)(=O)C2)ccc1Cl (stereo not shown),-1.35%
9,CC(C(=O)NCc1cccc(Cl)c1)n1c2ccccc2c2cnnc(O)c21 (stereo not shown),-3.79%
10,COC(=O)N1CC(=O)N(OCc2ccccc2)C1c1ccc(Cl)cc1Cl (stereo not shown),0.726%
11,O=c1oc(-c2ccccc2Cl)nc2sc3c(c12)CCCC3,-1.5%
12,Cc1ccc(/C=C(\NC(=O)c2ccccc2)C(=O)Nc2ccc3c(c2)OCO3)o1,2.46%
13,O=C(Cn1c(-c2ccccn2)nc2ccccc21)NCc1ccccc1,-3.5%
14,CC(C)CNC(=O)c1ccc(Br)o1,-1.29%
15,Cc1oc(-c2ccccc2F)nc1CS(=O)(=O)CC(=O)NCCCN1CCN(C)CC1,1.55%
16,O=[N+]([O-])c1cc2c3nnc(O)c-3cn(-c3ccc(F)cc3)c2cc1Cl,1.54%
17,O=C(Cn1ncc2c(Cl)cccc21)NCCCN1CCCC1,0.596%
18,CCn1cc(C(=O)NCC2COc3ccccc3O2)c2cc(OC)c(OC)cc2c1=O (stereo not shown),-1.73%
19,CN1C(=O)c2ccc(NC(=O)c3ccccc3Br)cc2C1=O,1.89%
20,Cc1cc(N2C(=O)C(O)=C(C(=O)c3cccs3)C2c2ccc(C(C)(C)C)cc2)no1 (stereo not shown),0.206%
21,O=C(O)CCc1ccc(-c2ccccc2)n1CCc1ccccc1,2.32%
22,CC(C)(C)c1ccc2c(c1)C(=O)N(c1ccccc1C(=O)O)C2=O,-1.02%
23,OC(CCN1CCOCC1)(c1ccc(Cl)cc1)C1CCCCC1 (stereo not shown),1.12%
24,O=C1NC(c2ccncc2)C(C(=O)c2ccccc2)C(O)(C(F)(F)F)N1 (stereo not shown),2.64%
25,O=C(Nc1ccc(Cl)cc1)c1ccc2c(c1)OCO2,9.6%

row,SMILES,% Inhibition @ 10 uM
1,O=C(O)c1cc2n(n1)C(C(F)(F)F)CC(c1ccc(Cl)cc1)N2 (stereo not shown),-2.37%
2,Cc1ccc(CNC(=O)Nc2nnc(N(C)C3CCCCC3)s2)cc1,-4.68%
3,CC(C)C[C@H]1CCC[C@H](CC(C)C)N1CCO,3.65%
4,O=C(CN1C(=O)S/C(=C\c2ccc(-c3ccc(F)cc3)o2)C1=O)N1CCOCC1,4.53%
5,CCCOc1ccc(C(=O)C2=C(O)C(=O)N(CCN(C)C)C2c2ccc(F)cc2)c(C)c1 (stereo not shown),-2.15%
6,Clc1ccc(C2=CC(c3cccs3)n3nnnc3N2)cc1 (stereo not shown),-2.75%
7,N=C(NOC(=O)C12CC3CC(CC(C3)C1)C2)c1ccc(Cl)cc1,-0.597%
8,Cn1c(=O)c2c(nc(SCC(=O)NC(C(=O)O)(c3ccccc3)c3ccccc3)n2C)n(C)c1=O,-0.0735%
9,CC(C)C[C@H](NC(=O)N1CCC(O)(c2ccccc2)CC1)C(=O)NCC#N,1.35%
10,Cc1cc(C)c(OCCOCCN2CCCC2)c(C)c1,-16%
11,O=C(CCc1nc(-c2cccs2)no1)Nc1cnc2ccccc2c1,-5.27%
12,CC(C)(C)c1ccc(OCC(=O)Nc2ccc(S(=O)(=O)N3CCCCCC3)cc2)cc1,1.94%
13,COc1ccc2[nH]c(SCC(=O)Nc3ccc(S(=O)(=O)Nc4onc(C)c4C)cc3)nc2c1,22.4%
14,Cc1cc(C)c(S(=O)(=O)NCc2csc(-c3cccnc3)n2)c(C)c1,0.747%
15,CCOc1ccc(N(CC(=O)NC2CC2)S(=O)(=O)c2ccc(C)cc2)cc1,-4.7%
16,Cc1cc(C)c(S(=O)(=O)NCC(=O)N2CCOCC2)c(C)c1,-2.15%
17,CCCCCCNC(=O)c1ccccc1-c1nc2ccccc2[nH]1,1.88%
18,Cc1ccc(NC(=O)C(C)Oc2ccccc2C)cc1O (stereo not shown),-7.89%
19,CCC(C)NC(=O)c1cc2c(s1)CSC2 (stereo not shown),2.12%
20,O=C(Nc1nc(-c2ccc(Cl)c(Cl)c2)cs1)C1CC1,-0.473%
21,COc1ccc(C2CC(=O)N3C(=C2C#N)SCC3(O)c2ccco2)cc1 (stereo not shown),20.2%
22,CCN(C(=O)c1sc(NC(=O)c2cccs2)c(C#N)c1C)C1CCCCC1,14.8%
23,NC(=O)CSc1nc2nncc-2c(O)n1-c1ccccc1,1.57%
24,Fc1ccc(C2NCCc3c2[nH]c2ccccc32)cc1 (stereo not shown),2.99%
